Reference: PubChem BioAssay AID1645887 (National Center for Advancing Translational Sciences (NCATS), 2021)
“And” between values parts separate entries of the source, which are not always exact repeats. Equal values may be shown once. In all, about 16,000 compounds went through this assay and about 40 (0.2%) were called active. Another 1% or so got no clear call; they are omitted. Calls come from the whole dose curve; as a rule, active = well fitted activation curve with a large enough effect; inconclusive = small, poorly fitted or top-dose-only effect, or another doubt; inactive = no such curve, though single readings can be large or run the other way. The list shows a part of the results. Starred links: 1 amine or outer side, 2 acyl side, 3 side chain; linkers in the order of their positions; H or OH if unused. Positions of bridges follow the written chain, without caps; N, C: chain ends. Non-standard residues stand in square brackets, D forms with d. Residues, ends and D or L forms follow the SMILES beside them. Chains are numbered I, II in the order given. Actinocin(9to1) = Cc1c2oc3c(C)ccc(C(=O)[*:1])c3nc-2c(C(=O)[*:2])c(N)c1=O; NMeV = CN[C@H](C(=O)O)C(C)C; Sar = CNCC(=O)O

Target: Rap guanine nucleotide exchange factor 4 (Homo sapiens) (UniProt Q8WZA2)
Test: Validation qHTS for agonist of cAMP-regulated guanine nucleotide exchange factor 4 (EPAC2);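 note: exchange makes BODIPY-GDP fluorescence drop when released from Rap1B; series mostly up to about 150 µM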
Conditions: EPAC2 Rap1B BODIPY-GDP exchange, fluorescence; activation: stronger effect = higher value
In short: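 Signal normalized against 6.5 mM cAMP as agonist control. Mix of EPAC2 (100 nM), RAP1B-BODIPY-GDP (250 nM) and GDP (50 uM) was read kinetically at 480/540 nm, every 5 min over 30 min, after 5 min room-temperature incubation with compound.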
% is set by controls: 0 for no effect and ±100 for the full control effect.

UniProt Q8WZA2, sequence (Q8WZA2 whole entry, looked up): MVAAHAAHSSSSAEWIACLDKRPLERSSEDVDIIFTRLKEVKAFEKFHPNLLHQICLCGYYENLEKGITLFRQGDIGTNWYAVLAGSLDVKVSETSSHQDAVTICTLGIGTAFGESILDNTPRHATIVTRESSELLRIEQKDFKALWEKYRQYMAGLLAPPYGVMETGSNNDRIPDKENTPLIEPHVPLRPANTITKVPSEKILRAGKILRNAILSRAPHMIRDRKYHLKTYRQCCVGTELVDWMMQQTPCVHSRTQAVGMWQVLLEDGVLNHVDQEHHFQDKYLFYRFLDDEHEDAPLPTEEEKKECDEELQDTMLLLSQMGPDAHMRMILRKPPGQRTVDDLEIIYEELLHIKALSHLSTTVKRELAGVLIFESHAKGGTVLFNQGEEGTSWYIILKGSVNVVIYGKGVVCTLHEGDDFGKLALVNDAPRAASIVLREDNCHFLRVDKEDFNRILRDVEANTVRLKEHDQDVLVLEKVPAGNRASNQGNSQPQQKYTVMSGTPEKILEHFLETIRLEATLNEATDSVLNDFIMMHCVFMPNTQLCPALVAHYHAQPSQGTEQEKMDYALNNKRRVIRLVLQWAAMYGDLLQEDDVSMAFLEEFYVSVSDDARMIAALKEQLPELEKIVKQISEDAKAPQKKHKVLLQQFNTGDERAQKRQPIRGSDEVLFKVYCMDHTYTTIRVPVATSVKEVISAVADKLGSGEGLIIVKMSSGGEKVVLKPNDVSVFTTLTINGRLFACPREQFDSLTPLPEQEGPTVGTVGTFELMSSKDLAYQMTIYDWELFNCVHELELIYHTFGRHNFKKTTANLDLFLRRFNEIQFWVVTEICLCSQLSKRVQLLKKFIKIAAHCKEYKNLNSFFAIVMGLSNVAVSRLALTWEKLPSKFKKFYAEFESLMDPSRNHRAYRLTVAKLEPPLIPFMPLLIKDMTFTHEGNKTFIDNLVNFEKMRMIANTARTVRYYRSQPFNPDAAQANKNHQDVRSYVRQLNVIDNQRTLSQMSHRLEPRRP

activation, inactive:
N#CCCn1c(=O)c(-c2cccc(C#N)c2)nc2cnc(N3CCOCC3)nc21 -23.1%
O=C([C@@H]1CC=C[C@@H]2CCN(C3CC3)C(=O)[C@@H]21)N1CCOCC1 -16.9%
CC1C(=O)OC2CC34C5CC(C(C)(C)C)C36C(OC(=O)C6O)OC4(C(=O)O5)C21O (centres undefined) -12%
COc1ccc2c(c1)c(CC(=O)OCC(=O)O)c(C)n2C(=O)c1ccc(Cl)cc1 -15.9% and -17.2%
CC(C)Cc1ccc([C@@H](C)C(=O)NS(C)(=O)=O)cc1 -6.95%
C=CC[n+]1cccc2cccc(O)c21 -29.3%
O=C(C[n+]1ccccc1Cl)c1ccc(Br)cc1 -21.2%
CC(=NCc1ccccc1)c1ccccc1O 10.2%
COC(=O)N1CCC2(CCN(C(=O)Nc3ccc(OC)cc3)CC2)CC1 -17.9%
CC(C)CCCC(C)C1CCC2C3CC=C4CC(O)CCC4(C)C3CCC12C (centres undefined) -6.61%
Cc1c2oc3c(C)ccc(C(=O)N[C@@H]4C(=O)N[C@H](C(C)C)C(=O)N5CCC[C@H]5C(=O)N(C)CC(=O)N(C)[C@@H](C(C)C)C(=O)O[C@@H]4C)c3nc-2c(C(=O)N[C@@H]2C(=O)N[C@H](C(C)C)C(=O)N3CCC[C@H]3C(=O)N(C)CC(=O)N(C)[C@@H](C(C)C)C(=O)O[C@@H]2C)c(N)c1=O (I: T[dV]P[Sar][NMeV] / II: T[dV]P[Sar][NMeV]; ester I:1-I:C, II:1-II:C; linker I:N-II:N via Actinocin(9to1)) -15.1%
O=C1C[C@H]2C=CCc3cccc(c32)CN1Cc1ccc(F)cc1 -12.9%
COc1ccc(Oc2ncc3nc(-c4cccs4)c(=O)n(C)c3n2)cc1 9.56%
CN(C)C(=O)c1ccc(-c2cc(NCc3ccccc3)ncn2)cc1 -9.11%
O=S(=O)(c1ccccc1)N1CCC2(CCN(c3ccccc3)CC2)CC1 6.19%
O=C(O)CCCC[C@@H]1CCSS1 -15.4%
COc1ccccc1CNc1ncnc2ccc(-c3ccccc3OC)cc12 -2.42%
CN1[C@H](CC(=O)c2ccccc2)CCC[C@H]1C[C@@H](O)c1ccccc1 -1.27%
Cc1[nH]c2ccccc2c1/C=C/c1nccc2ccccc12 -23.1%
COc1ccc(CN2C[C@H](Sc3nc4ccccc4[nH]3)C[C@H]2C(=O)N(C)C)c2ccccc12 -1.61%
C=C[C@@H]1c2cc(C)ccc2N(S(=O)(=O)c2ccc(C)cc2)[C@H](c2ccccc2)C1(C#N)S(=O)(=O)c1ccccc1 (some centres undefined) 0.0524%
CS(=O)(=O)N1CCC2(CC1)CN(Cc1ccccc1)C2 -11.1%
COc1ccc(C(=O)N2CCC[C@@]3(CCN(c4ncccn4)C3)C2)cc1 -15.1%
Cc1cccc(Nc2ccncc2S(=O)(=O)NC(=O)NC(C)C)c1 0.863% and -23.6%
O=c1c(CCc2ccccc2)nc2cnc(Nc3ccccc3)nc2n1Cc1cccs1 -3.04%
O=C(c1cc(C(F)(F)F)cc(C(F)(F)F)c1)N1CCC2(CCCN(c3ncccn3)C2)CC1 -15%
CO[C@H]1[C@H](NC(=O)c2ccco2)c2ccccc2C12CCN(Cc1ccc3cccc(F)c3n1)CC2 -23.4%
COc1ccc(Oc2ncc3nc(C)c(=O)n(Cc4ccc(F)cc4)c3n2)cc1 -43.6%
Cc1c(C(=O)N2CCCCC2)sc2ncnc(NCCc3ccccn3)c12 -1.64%
Cn1c(=O)c(-c2ccccc2)nc2cncnc21 -1.19%
Cc1c(C(=O)NCc2cccc(F)c2)sc2ncnc(NCC3CCCO3)c12 (centres undefined) -12.3%
CN(C)Cc1ccccc1-c1nc(NC2CC2)c2ccccc2n1 -1.93%
COc1ccccc1-c1cncnc1NCc1cccnc1 -13.9%
COC(=O)CC1C(C)(C)C(=O)C2CC3C4=CC(=O)OC(c5ccoc5)[C@]4(C)CCC3[C@@]1(C)C2=O (some centres undefined) -20.9%
CNc1nc(-c2ccc(N(C)C)cc2)nc2ccccc12 -5.46%
COc1ccc(CN2[C@@H](CC(C)=O)c3cc(C(F)(F)F)ccc3S2(=O)=O)cc1 -8.31%
C=C1C[C@@]23CC4C5[C@@]6(C)C[C@H](O)C[C@@]57C2[C@H](O)[C@@H]1[C@H](O)[C@H]3[C@H]7N4C6 -15.2%
CCCCCCCCCCCCN1C/C(=C\C(=O)OCC)c2ccccc2S1(=O)=O -26.3%
CC(=O)N1CCC2(CCCN(C(c3ccccc3)c3ccccc3)C2)CC1 -24.3%
O=C1Nc2ccc(I)cc2/C1=C/c1cc(Br)c(O)c(Br)c1 -14.3% and -22.2% and -47.2%
CC1(S(=O)(=O)O)CC(=O)c2ccccc2C1=O (centres undefined) 3.25%
COc1ncc2ncc(=O)n(C3CC3)c2n1 -9.5%
NCCNC(=O)Cc1ccc(NC(=O)Cc2ccc(Nc3ncnc4c3ncn4[C@@H]3O[C@H](CO)[C@@H](O)[C@H]3O)cc2)cc1 13%
C[C@]12CC[C@H]3[C@@H](CCC4=CC(=O)CC[C@@]43C)[C@@H]1CC[C@@H]2C(=O)CO 5.9%
O=C(O)CCCCC1SCC2NC(=O)NC21 (centres undefined) -13.9%
O=C1CSC2(CCN(CCCN3c4ccccc4Sc4ccc(Cl)cc43)CC2)N1 -24.2%
Cc1ccc2c(c1)C(=O)[C@@]1(O)CCN(c3ccccc3)C1=N2 -107%
C=N[C@@H](C(=O)N[C@@H]1C(=O)N2[C@@H]1SC(C)(C)[C@@H]2C(=O)O)c1ccccc1 -10.3%
CC[N+](CC)(CC(=O)Nc1c(C)cccc1C)Cc1ccccc1 4.86% and 4.25%
COc1cc(NS(=O)(=O)c2ccc(N)cc2)nc(OC)n1 -21.4% and -14.5%
O=C1CCC[C@@H]2C[C@@]3(C[C@@H]4CCN1[C@H]24)Nc1cc(Cl)c(Cl)cc1NC3=NCc1ccccc1 -4.22%
COc1cc2ccc(=O)oc2cc1O 13.8% and -3.8%
CC1(C)O[C@@H]2[C@@H](CO[C@@]3(COS(N)(=O)=O)OC(C)(C)O[C@@H]23)O1 -6.8%
O=c1c(-c2ccc(F)cc2)nc2cnc(N3CCNCC3)nc2n1-c1ccccc1 -13.7%
Cc1cccc(CNc2cc(-c3ccc(C(=O)N(C)C)cc3)ncn2)c1 -23.4%
O=C1N=C2SCCN2C(=O)C1Cc1ccc(Cl)cc1 (centres undefined) -4.71%
c1ccc(CN(CCN(Cc2ccccn2)Cc2ccccn2)Cc2ccccn2)nc1 11.4%
COC(=O)c1cc(CNC(=O)c2ccccc2F)cc(NC(=O)c2ccccc2OC)c1 -3.85%
CN(C)c1ncc2nc(-c3cccc(C#N)c3)c(=O)n(C[C@H]3CCCO3)c2n1 -0.949%
CNc1nc(-c2cccnc2)nc2ccccc12 9.28%
CNC(=O)[C@H]1O[C@@H](n2cnc3c(NCc4ccc(I)cc4)nc(Cl)nc32)[C@H](O)[C@@H]1O -60.1%
CCNc1ncc2nc(C)c(=O)n(CCc3ccccc3)c2n1 0.786%
N[C@H](Cn1ccc(=O)n(Cc2ccccc2C(=O)O)c1=O)C(=O)O -2.85%
CC(C)Cn1cnc2c(N)nc3ccccc3c21 -19.6%
O=C(NCCc1nnc2n1CCN(CC1CC=CCC1)CC2)c1ccc(F)cc1 (centres undefined) 4.76%
Clc1cccc(Nc2nnc(-c3ccccc3)c3ccccc23)c1 -5.54% and -2%
COc1ccc2c(c1)-c1nc(-n3ncc(C(=O)NCc4cccnc4)c3C3CC3)ncc1CC2 -8.29%
Cc1cc(C(=O)NCc2nnc3n2CCN(Cc2ccc(F)cc2F)CC3)c(C)o1 -0.459%
CC(=O)OCC(=O)[C@@]1(O)[C@H](OC(C)=O)C[C@H]2[C@@H]3CCC4=CC(=O)C=C[C@]4(C)[C@@]3(F)[C@@H](O)C[C@@]21C -5.06%
COCC1CCCN(Cc2ccc3c(c2)CN(C(=O)c2cnn(C(C)C)c2)CCO3)C1 (centres undefined) -1.33%
O=S1(=O)CCOC[C@H](CC2CCCCC2)N1Cc1ccc(F)cc1 -27.3%
Cc1ccc2c(c1)CN(CCC(=O)NCc1cc(C)n(C)n1)CC(C)O2 (centres undefined) 1.79%
Cc1nc2cc(NC(=O)[C@@H]3C[C@@H](Sc4ccccn4)CN3Cc3cccc(Cl)c3)ccc2s1 0.0431%
O=C(C[C@H]1C(=O)N(c2ccccc2)C[C@@H]1Cc1ccccc1)Nc1ccccc1 -11%
c1ccc2c(Nc3ccncc3)nc(-c3ccc4c(c3)OCO4)nc2c1 -7.97%
CCCCNC(=O)O[C@H]1C[C@@H]2CCN3C(=O)CCC[C@H]([C@H]1Cc1ccccc1)[C@H]23 -12.8%
NC(=O)N1c2ccccc2CC(=O)c2ccccc21 -7.75%
COC(=O)C1CCCCN1Cc1nc(N2CCCCC2)c2cc(OC)c(OC)cc2n1 (centres undefined) -15.4%
O=c1c(CCc2ccccc2)nc2cnc(N3CCNCC3)nc2n1Cc1ccc(F)cc1 -33.2%
